Assay results: patent publication CN113004416A (HEFEI HANKEMAB BIOTECHNOLOGY CO LTD, dated 2021)

Columns and labels:
[1] = target: T1, HER2抗原 (human HER2/ErbB2 in lysate of T6-17 cells, coated on ELISA plate) (human, UniProt P04626); assay: ELISA on coated T6-17 cell lysate
T1 construct: The antigen is a crude detergent lysate of cells with high membrane expression of human HER2, not a purified protein

[2] = target: T2, 细胞表面HER2抗原 (HER2 on SKOV3, N87, MCF-7/HER2, MCF-7, JIMT-1, AC16 cells) (human, UniProt P04626); assay: flow cytometry on JIMT-1 cells
T2 construct: whole, on cells

[3] = target: 细胞表面4-1BB抗原 (human 4-1BB on CHO-K1-Hu4-1BB stable cells; CD137 on lymphocytes) (human); assay: flow cytometry on CHO-K1-Hu4-1BB cells
[4] = target: T2, 细胞表面HER2抗原 (HER2 on SKOV3, N87, …); assay: flow cytometry on SKOV3 cells
[5] = target: T2, 细胞表面HER2抗原 (HER2 on SKOV3, N87, …); assay: flow cytometry on MCF-7/HER2 cells
[6] = target: T2, 细胞表面HER2抗原 (HER2 on SKOV3, N87, …); assay: flow cytometry on N87 cells

B1: 抗人HER2/4-1BB双特异性抗体 HK006A1 (bispecific antibody, human IgG4 S228P, F234A L235A)
chain: [in this place about 120 residues]GGGGSGGGGSGGGGSDIQMTQSPSSLSASVGDRVTITCRASQDVNTAVAWYQQKPGKAPKLLIYSASFLYSGVPSRFSGSRSGTDFTLTISSLQPEDFATYYCQQHYTTPPTFGGGTKLTVLG[in this place human IgG4 Fc with S228P F234A L235A (EU numbers)]GGGGSGGGGSGGGGSQVQLQESGPGLVKPSETLSITCTVSGSSLTSYGVHWVRQPPGKGLEGLGVIWPGGSTNYNSALMSRLTISKDNSKSQVSLKMSSLTAADTAMYYCARVTGTWYFDVWGQGTTVTVSSGGGGSGGGGSGGGGSDIQMTQSPSSLSASLGDRVTISCSASQGISNYLNWYQQKPDGTVKLLIYYTSTLHSGVPSRFSGSGSGTDFTLTISSLQPEDVATYYCQQYSKLPWTFGGGTKLEIK
notes: Homodimer of two identical chains joined by disulfide bonds between hinge cysteines; Expressed in HEK293F cells, purified by Protein A and size exclusion; also called 靶向HER2-CD137双特异性抗体
EC50 [1]: 0.131 µg/mL
EC50 [2]: 3.34 µg/mL
EC50 [3]: 5.46 µg/mL
EC50 [4]: 3.87 µg/mL
EC50 [5]: 5.63 µg/mL
EC50 [6]: 6.16 µg/mL
